We go through 1 molecule from the supplement of paper PMC8728848.

This is one part of the list.

What all share (experiment): glycan array binding signal (z-score within array); higher = stronger binding
Conditions in all cases: glycan notation: IUPAC condensed, linker removed

In assay [1] the target is Gal(b1-3)GlcNAc(b1-6)[Gal(b1-3)]GalNAc. The gist of the method:
(§1)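 Arrays were curated from the Consortium for Functional Glycomics database, 3228 in total, and kept only where the protein sequence was available. Binding is expressed as a within-array Z-score. This score was averaged across arrays of the same protein sequence at different concentrations or buffers and across linkers, and negative values can be read as non-binding.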

The target in another assay is Gal(b1-3)GlcNAc6S. The essentials:
as §1

In assay [2] the target is Gal(b1-3)[Fuc(a1-4)]GlcNAc. The essentials:
as §1

The target of assay [3] is Gal(b1-3)[Fuc(a1-4)]GlcNAc(b1-2)Man. The gist of the method:
as §1

Assay [4] concerns the target Gal(b1-3)[Fuc(a1-4)]GlcNAc(b1-2)Man(a1-3)[Gal(b1-3)[Fuc(a1-4)]GlcNAc(b1-2)Man(a1-6)]Man(b1-4)GlcNAc(b1-4)[Fuc(a1-6)]GlcNAc. The essentials:
as §1

For assay [5], the target named is Gal(b1-3)[Fuc(a1-4)]GlcNAc(b1-3)Gal(b1-3)[Fuc(a1-4)]GlcNAc. The essentials:
as §1

Assay [6] has as its target Gal(b1-3)[Fuc(a1-4)]GlcNAc(b1-3)Gal(b1-4)[Fuc(a1-3)]GlcNAc. The essentials:
as §1

The target in assay [7] is Gal(b1-3)[Fuc(a1-4)]GlcNAc(b1-6)GalNAc. The essentials: as §1
For assay [8], the target named is Gal(b1-3)[GlcNAc(b1-6)]GalNAc. The essentials:
as §1

In assay [9] the target is Gal(b1-3)[Neu5Ac(a2-6)]GalNAc. The essentials:
as §1

For assay [10], the target named is Gal(b1-3)[Neu5Ac(a2-6)]GlcNAc(b1-4)Gal(b1-4)Glc. The gist of the method:
as §1

Assay [11] deals with Gal(b1-3)[Neu5Ac(b2-6)]GalNAc. The gist of the method:
as §1

The target of the next assay is Gal(b1-4)Gal. The gist of the method: as §1
Assay [12] concerns the target Gal(b1-4)GalNAc(a1-3)[Fuc(a1-2)]Gal(b1-4)GlcNAc. The gist of the method:
as §1

Assay [13] concerns the target Gal(b1-4)GalNAc(b1-3)[Fuc(a1-2)]Gal(b1-4)GlcNAc. The essentials: as §1
A further assay addresses Gal(b1-4)Glc. The gist of the method: as §1
Another assay has as its target Gal(b1-4)Glc6S. The gist of the method:
as §1

The next assay concerns the target Gal(b1-4)GlcNAc. The essentials: as §1
The target of assay [14] is Gal(b1-4)GlcNAc(a1-6)Gal(b1-4)GlcNAc. The gist of the method:
as §1

For the next assay, the target named is Gal(b1-4)GlcNAc(b1-2)Man. The gist of the method:
as §1

Assay [15] has as its target Gal(b1-4)GlcNAc(b1-2)Man(a1-3)Man(b1-4)GlcNAc(b1-4)GlcNAc. The essentials:
as §1

In assay [16] the target is Gal(b1-4)GlcNAc(b1-2)Man(a1-3)[Gal(b1-4)GlcNAc(b1-2)Man(a1-6)]Man(b1-4)GlcNAc(b1-4)GlcNAc. The gist of the method:
as §1

B1: Pwp4 (Candida glabrata) (protein)
chain: MGSSHHHHHHSSGLVPRGSHMASVGNPITVSNVCSFPKNWHRTAGFRALTARLGIGIQSDSYKELLNYPGTFQLTTQQSSTTKPNFQISGLVGNIYGLTIVPSYLLVELTGYFVPPVSGEYTFSLEGSDDAAIIFIANPSTFKCGHVEDWPTAYDNDVTVTESIHATRTIYMIEGVAYPIRIAYYNGLSLGKLQASFTDPEGVKRVDWNGYIWRYDSCDTCSYV
For B1, the “glycan array binding signal (z-score)” value is -0.485 in [1]; -0.565 in the assay with Gal(b1-3)GlcNAc6S; -0.533 in assay [2]; -0.225 in [3]; 0.258 in [4]; 0.756 in assay [5]. For the same molecule, the “glycan array binding signal (z-score)” value was 0.126 in assay [6]; 2.48 in assay [7]; -0.506 in assay [8]; 0.185 in assay [9]; -0.479 in [10]; 0.685 in assay [11]. Also, the “glycan array binding signal (z-score)” value was -0.601 with Gal(b1-4)Gal; -0.29 in assay [12]; -0.019 in assay [13]; -0.5 with Gal(b1-4)Glc; -0.361 with Gal(b1-4)Glc6S; -0.41 in the assay with Gal(b1-4)GlcNAc. Also, the “glycan array binding signal (z-score)” value in assay [14] is 0.19; with Gal(b1-4)GlcNAc(b1-2)Man it was -0.565; in assay [15] it was 0.493; in [16], -0.421.
